Measured values taken from patent US10988445B2 (AstraZeneca AB, priority 2015, dated 2021).

Target: RORγ ligand binding domain (Homo sapiens (Human), UniProt P51449)
Assay: RORγ co-factor recruitment assay (FRET), SRC-1 peptide recruitment
Assay type: biochemical
Details: inhibition of SRC-1 (NCOA1_677-700) peptide recruitment to hRORγ LBD

Sequence of UniProt P51449 (P51449 whole entry, looked up): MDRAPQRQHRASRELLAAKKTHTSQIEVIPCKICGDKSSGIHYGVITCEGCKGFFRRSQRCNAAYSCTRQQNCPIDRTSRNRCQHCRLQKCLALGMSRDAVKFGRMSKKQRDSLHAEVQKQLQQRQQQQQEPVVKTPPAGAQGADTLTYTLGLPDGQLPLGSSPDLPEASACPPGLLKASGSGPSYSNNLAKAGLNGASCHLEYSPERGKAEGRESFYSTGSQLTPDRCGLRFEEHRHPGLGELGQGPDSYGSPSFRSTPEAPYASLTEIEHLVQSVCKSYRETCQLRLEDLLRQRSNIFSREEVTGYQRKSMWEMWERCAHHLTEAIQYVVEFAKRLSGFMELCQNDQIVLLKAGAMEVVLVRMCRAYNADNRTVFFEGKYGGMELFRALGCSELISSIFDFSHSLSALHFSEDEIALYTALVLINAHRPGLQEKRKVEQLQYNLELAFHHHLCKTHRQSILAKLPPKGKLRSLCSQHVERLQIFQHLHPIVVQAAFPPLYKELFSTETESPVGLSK

COC1(C(=O)N2Cc3cc(S(C)(=O)=O)ccc3C2C(=O)Nc2ccc(C(O)(C(F)(F)F)C(F)(F)F)cc2)CCC1 (stereo not shown) [Example 448, N-[4-(1,1,1,3,3,3-Hexafluoro-2-hydroxypropan-2-yl)phenyl]-2-[(1-methoxycyclobutyl)carbonyl]-5-(methylsulfonyl)-2,3-dihydro-1H-isoindole-1-carboxamide]
pIC50 (FRET): 6.1
